The text below walks through data of patent US20250313632A1.

Test [1] has as its target human B7-H3 protein (human) (UniProt Q5ZPR3). Briefly: Octet (BLI) epitope binning on captured human B7-H3; competitor CA84D.
Test [2] has the same target. In words: Octet (BLI) epitope binning on captured human B7-H3; competitor 72D1D11. On the technique in general: Biolayer interferometry detects binding as a change in optical thickness at a sensor tip.
Test [3] shares this target. In words: Octet (BLI) epitope binning on captured human B7-H3; competitor AHP05562.
For test [4] the target is unchanged. Briefly: Octet (BLI) epitope binning on captured human B7-H3; competitor AHP06345.
Test [5] deals with human B7-H3 (4Ig) protein (his tag) (human) (UniProt Q5ZPR3). Briefly: SPR (Biacore T200), antibody captured on Protein A chip, B7-H3 injected, 1:1 model. In general terms: In SPR one partner is held on a chip, and binding of the other changes the refractive index at the surface.

Chain of UniProt Q5ZPR3 (Q5ZPR3 29-461): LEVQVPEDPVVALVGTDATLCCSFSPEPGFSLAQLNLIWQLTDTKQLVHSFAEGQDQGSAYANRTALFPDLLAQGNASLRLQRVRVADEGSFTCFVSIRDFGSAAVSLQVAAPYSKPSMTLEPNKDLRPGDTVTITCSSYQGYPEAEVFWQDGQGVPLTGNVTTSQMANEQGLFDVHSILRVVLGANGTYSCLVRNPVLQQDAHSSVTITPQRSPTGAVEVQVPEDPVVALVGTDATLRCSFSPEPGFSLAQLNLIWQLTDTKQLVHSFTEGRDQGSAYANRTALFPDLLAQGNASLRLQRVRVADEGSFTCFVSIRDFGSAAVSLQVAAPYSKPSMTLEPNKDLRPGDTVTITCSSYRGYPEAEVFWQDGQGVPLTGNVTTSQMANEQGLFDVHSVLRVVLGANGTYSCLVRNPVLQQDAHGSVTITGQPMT

B1: AHP06331 (antibody, V domains shown)
VH: [about 100 residues not shown]DRYYDILTGTFGYWGQGTLVTVSS
VL: EIVMTQSPDFQSVTPKEKVTITCRASQSIGSSLHWYQQKPDQSPKLLIKHASQPISGVPSRFSGSGSGTVFTLTIQSLEAEDAATYYCQQSSRLPTFGGGTKVEIQ
One may read the Kd as the free concentration of one partner at which half of the binding sites on the other are occupied at equilibrium, for simple one-to-one binding. The term koff denotes the rate constant with which the complex falls apart. As usually defined, the kon is the rate constant with which the complex forms. A low value points to slower complex formation. As for B1, the inhibition ratio in test [1] was 82.7%; in test [2], -8.37%; in test [3], -11.8%; in test [4], -13%. This molecule also gave a Kd in test [5] of 41.1 nM. In test [5], this molecule registered a koff of 0.00372 s⁻¹. In test [5], this molecule returned a kon of 90600 M⁻¹ s⁻¹.
